{
  "source": "patent US20200347138A1",
  "about": "(INDIAN INSTITUTE OF SCIENCE, published 2020)",
  "molecular_target": "T1, CR/FNII domain of canine DEC205, GST fusion protein (canine)",
  "T1 construct": "Expressed in E. coli BL21 from pGEX4T1, purified on GSH matrix as a 45 kDa GST fusion; exact limits of the insert are uncertain; also called canine CR/FNII; CR/FNII N-Terminal domain; not shown: glutathione S-transferase (GST) fusion partner from expression vector pGEX4T1",
  "T1 chain": "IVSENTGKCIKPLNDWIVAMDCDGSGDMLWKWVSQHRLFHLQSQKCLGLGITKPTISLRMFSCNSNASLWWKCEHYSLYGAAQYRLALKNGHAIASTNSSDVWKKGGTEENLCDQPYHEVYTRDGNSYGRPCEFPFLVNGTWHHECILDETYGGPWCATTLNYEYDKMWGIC",
  "experiment": "SPR, Biacore 2000, CR/FNII immobilised on CM5 chip, ScFv-CS as analyte",
  "data": [
    {"binder": "ScFv-CS 37 (yeast library ScFv 37 fused to Core Streptavidin) (scFv, domain: Core Streptavidin; The insert was PCR amplified from the yeast display vector, so flanking residues may differ from the entry; Purified on DEAE-Sephacel; not shown: histidine tag) ASQVQLQQSGPGLVKPSQTLSLTCAISGDSVSSNTAAWNWIRQSPWRGLEWLGRTYYRSQWNTDYAVSVKSRITINPDTSKNQFSLQLNSVTPEDTAVYYCARGWSGMDVWGQGTTVTVSSGSASAPTGIIGSGGGGSGGGGSGGGGSEIVMTQSPGTLSLSPGERATLSCRASQSVSSNYLAWYQQKPGQAPRLVIYGASSRASGIPDRFSGSGSGTDFTLTISRLEPEDFAVYYCQQYGSSHSIRFGQGTQLEIKSGILEQKLISEEDL[about 120 residues omitted here]", "values": [
      {"measurement": "Kd", "result": 1.1, "unit": "nM"}
    ]},
    {"binder": "ScFv-CS 42 (yeast library ScFv 42 fused to Core Streptavidin) (scFv, domain: Core Streptavidin; The insert was PCR amplified from the yeast display vector, so flanking residues may differ from the entry; Purified on DEAE-Sephacel; not shown: histidine tag) ASQVQLQQSGPGLVKPSQTLSLTCAISGDSVSSNSAAWNWIRQSPSRGLEWLGRTYYRSKWYNDYAVSVKSRITIKPDTSKNQFSLQLNSVTPDDTAVYYCARSASYQEYLQSWGQGTLVTVSSGILGSGGGGSGGGGSGGGGSEIVLTQSPGTLSVSPGERATLSCRASQSVSRNLAWFQQKPGQAPRLLMYGASTRATGIPARFSGSGSGTEFTLTISSLQSEDFAAYYCQQYDQWPRTFGQGTKVEIKSGILEQKLISEEDL[about 120 residues omitted here]", "values": [
      {"measurement": "Kd", "result": 1.2, "unit": "nM"}
    ]},
    {"binder": "ScFv-CS 83 (yeast library ScFv 83 fused to Core Streptavidin) (scFv, domain: Core Streptavidin; The insert was PCR amplified from the yeast display vector, so flanking residues may differ from the entry; Purified on DEAE-Sephacel; not shown: histidine tag) ASQVQLQQSGPGLVKPSQTLSLTCAISGDSVSSNSAAWNWLRQSPSGGLDWLGRTYYGSKWNNDYAASVKGRMTITPDTSKNQFSLQLNSVTPDDTAVYYCARTRGGYHYDYWGQGTLVTVSSGILGSGGGGSGGGGSGGGGSNFMLTQPHSVSQSPGETVTISCTGSSGSIASNFVQWYQQRPGTLPTTVIFDNDKRPSGVPDRVSGSVDSSSNSASLTISGLTAGDEADYYCQYCGNNVRVFGGGTQLTVLSGILEQKLISEEDL[about 120 residues omitted here]", "values": [
      {"measurement": "Kd", "result": 0.2, "unit": "nM"}
    ]},
    {"binder": "ScFv-CS 92 (yeast library ScFv 92 fused to Core Streptavidin) (scFv, domain: Core Streptavidin; The insert was PCR amplified from the yeast display vector, so flanking residues may differ from the entry; Purified on DEAE-Sephacel; not shown: histidine tag) ASQVQLQQSGPGLVRPSQTLSLTCAISGDSVSRDTAAWNWVRQSPWGGLEWLGRTYYRSEWNTDYAVSLKSRMTITPDTSKSQFSLQLNSVTPEDTAVYYCARGWSGMDVWGHGTTVTVSAGSASAPTGILGSGGGGSGGGGSGGGGSEIVMTQSPGTPFLSPGERATLSCRASQSVSSNYSAWYQQKPGQAPRLVIYGASSRATGIPDRFSGSGSGTDFTLTISRLEPEDYAVYYCQQYGSSPLISFGQGTRLEIKSGILEQKLISEEDL[about 120 residues omitted here]", "values": [
      {"measurement": "Kd", "result": 0.08, "unit": "nM"},
      {"measurement": "koff", "result": "3.2e-05", "unit": "s⁻¹"},
      {"measurement": "kon", "result": 660000, "unit": "M⁻¹ s⁻¹"}
    ]}
  ]
}
